According to the supplement of paper PMC3334620:
The full ranking holds about 33,000 sequences; the median of “E-score (-0.5 to 0.5)” is about -0.053, and the highest 2% start at about 0.37. The list shows a part of the results.

molecular target: Hap1 (UniProt P0CE41); test: PBM E-score (8-mer binding enrichment) (E-score (-0.5 to 0.5)); higher = stronger / more preferred TF binding; most listed sequences are background and not binding sites; settings: protein concentration: 200 nM; construct: GST-DNA-binding domain
How it was run: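 Using PURExpress in vitro transcription/translation, GST-tagged yeast transcription factors were made in full-length or DNA-binding-domain form. These were applied at about 100-200 nM to double-stranded universal all-10-mer Agilent arrays, and bound protein was detected with fluorescent anti-GST. Scans were normalised with masliner before the Universal PBM Analysis Suite assigned E-scores to ungapped eight-base words pooled with their reverse complements.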

Sequence of UniProt P0CE41 (P0CE41 whole entry, the tested form may be a part): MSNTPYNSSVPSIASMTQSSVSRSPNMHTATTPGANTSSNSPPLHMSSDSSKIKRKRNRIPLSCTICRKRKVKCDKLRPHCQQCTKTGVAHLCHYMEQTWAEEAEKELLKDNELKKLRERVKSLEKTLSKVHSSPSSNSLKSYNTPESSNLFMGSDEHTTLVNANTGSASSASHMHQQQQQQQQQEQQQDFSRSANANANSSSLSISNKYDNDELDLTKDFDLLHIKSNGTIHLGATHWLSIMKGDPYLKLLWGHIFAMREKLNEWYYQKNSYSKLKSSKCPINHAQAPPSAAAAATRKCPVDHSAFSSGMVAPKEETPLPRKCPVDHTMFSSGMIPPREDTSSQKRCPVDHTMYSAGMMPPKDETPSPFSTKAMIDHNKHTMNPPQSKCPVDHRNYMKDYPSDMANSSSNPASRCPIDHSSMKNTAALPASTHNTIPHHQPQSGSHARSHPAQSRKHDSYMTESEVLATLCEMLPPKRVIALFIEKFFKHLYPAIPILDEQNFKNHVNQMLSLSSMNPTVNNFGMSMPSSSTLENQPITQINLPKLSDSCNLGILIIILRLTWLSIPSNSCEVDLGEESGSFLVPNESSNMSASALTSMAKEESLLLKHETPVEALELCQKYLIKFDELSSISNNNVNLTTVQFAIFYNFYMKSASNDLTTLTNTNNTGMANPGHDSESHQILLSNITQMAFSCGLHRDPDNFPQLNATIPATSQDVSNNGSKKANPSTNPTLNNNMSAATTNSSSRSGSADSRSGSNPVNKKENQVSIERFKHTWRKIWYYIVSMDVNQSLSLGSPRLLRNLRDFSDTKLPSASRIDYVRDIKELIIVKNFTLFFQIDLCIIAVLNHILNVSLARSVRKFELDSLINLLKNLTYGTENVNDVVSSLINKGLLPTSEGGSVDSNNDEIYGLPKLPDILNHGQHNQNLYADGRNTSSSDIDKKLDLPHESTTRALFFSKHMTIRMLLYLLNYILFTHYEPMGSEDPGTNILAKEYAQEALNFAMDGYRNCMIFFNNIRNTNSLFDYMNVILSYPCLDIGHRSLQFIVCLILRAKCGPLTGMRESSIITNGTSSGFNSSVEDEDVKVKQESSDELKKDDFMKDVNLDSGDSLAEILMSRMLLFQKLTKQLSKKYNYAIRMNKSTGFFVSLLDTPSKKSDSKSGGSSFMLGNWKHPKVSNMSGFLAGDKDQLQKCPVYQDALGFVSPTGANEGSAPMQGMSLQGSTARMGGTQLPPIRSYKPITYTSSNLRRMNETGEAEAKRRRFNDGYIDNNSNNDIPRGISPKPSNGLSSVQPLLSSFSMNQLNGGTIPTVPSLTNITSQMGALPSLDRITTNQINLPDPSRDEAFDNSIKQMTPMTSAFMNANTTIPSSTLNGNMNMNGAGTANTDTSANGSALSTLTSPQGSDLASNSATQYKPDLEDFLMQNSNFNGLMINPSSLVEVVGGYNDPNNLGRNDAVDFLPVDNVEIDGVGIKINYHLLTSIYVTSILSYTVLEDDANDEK

Sequence	PBM E-score
ATACGCCA	-0.0482
CACGCCCA	-0.202
CGGCGGGA	0.338
AAGGAATA	-0.00042
GCATGTCA	-0.0466
CGTCGAAA	0.104
GCTTCAAC	-0.0828
CCCTCCGG	0.331
GGCCGAAC	0.37
ACTAAGAC	-0.184
GTTCGCGA	0.0847
GAGCCGCC	0.222
CTGTCCCA	-0.242
CTCGTCAA	-0.232
ACCGAGAC	0.28
AGTTATAC	0.061
CCTCAGCC	-0.0983
GGTCAACC	0.00435
GAGAGCAA	-0.131
AGCTTTAA	-0.0888
GAATCGTA	-0.0869
AGATTACA	0.0437
GCTAAACC	0.0775
ATTGGACC	0.161
CTCACCAA	-0.0619

Sequence	PBM E-score
ACGTGCGA	-0.0628
ATGGAATC	-0.00395
CAGCACCC	-0.155
GCTGGCAC	-0.221
ATTTGTCC	0.228
ATCAAGAG	-0.172
GCCCTAAC	0.117
AAGGACTG	-0.275
GTTCCCGA	0.257
CTCATGGC	0.0536
TAGCTATA	-0.146
AACCGCAA	0.199
GTCTCTAA	-0.157
CCAAAGCC	0.0357
CCGTCTAG	0.101
ACACAGTC	0.0224
CTGATGCC	0.0435
CTTTCTCC	0.165
CTAATCAC	0.209
ACTACATA	-0.249
ATGTATAC	0.00845
CATTGATC	-0.0242
GAACTTTA	0.0817
CGGGCCTA	0.383
GACGAGCC	-0.211

Sequence	PBM E-score
CGGCCACA	0.235
GCATGCTA	-0.134
ACGACCCA	-0.136
GTATACGA	-0.0696
AATGAACA	-0.111
CAAAAGGC	-0.065
TTAAACAA	-0.0739
CATCCGGG	0.278
CATTTTCC	0.0275
GGCACGCC	-0.0738
ATCCCGCC	0.162
ACCACAGG	-0.164
GGCTATAA	0.13
AGATAGAT	-0.296
ATCCTTAG	-0.165
ATCTCACG	0.0714
AACCTCAT	-0.141
GCAACAGA	-0.0259
ATGAATGG	0.0779
CGCAATTC	0.111
ACGCGTAA	-0.0172
AGGCTCAA	-0.18
ACCCGGAT	0.322
CGGACCAG	0.304
ACACGGCG	0.119

Sequence	PBM E-score
CAAAGCGC	0.139
TCGCACCA	-0.0261
GAGATTAC	0.126
CGCACGGA	0.336
CGGTCGCC	0.22
CTACACCC	0.0196
GCGGCCAC	0.0835
CGGTATCC	0.269
ACCACACT	-0.0326
TTACCCAA	-0.225
CTGAGGGC	-0.243
ATAAATAT	0.174
TAGCTTGA	-0.226
TAGTGCGA	-0.185
CCCTCGCG	0.138
GACGAAGA	-0.0559
ATAATTGA	-0.0207
ATCCCTCC	0.0388
CGTGTAAC	-0.0381
AGTGAGAA	-0.0436
GCTCGCTA	-0.00683
AGTACCAT	-0.18
ATAGGAGG	-0.0287
TGGAATAA	-0.128
ATTATGCC	0.154

Sequence	PBM E-score
AGCTACCC	-0.159
CAGACATG	-0.204
CGACCGTC	-0.0224
ACAACCGA	0.296
AATTCACT	-0.162
AGCGCGCG	0.14
AAACCTCG	0.1
ACAGTCCT	-0.306
ATTGAAGA	-0.255
ATCCTCAC	-0.103
CTGATAAC	-0.0581
ATCTAAAA	-0.105
AATTTTTC	0.0506
CGCACTCC	-0.128
ACCCGAAT	0.314
ACTGACTG	-0.282
TAATACTA	-0.0683
AACGGACA	0.369
CCTAATGC	-0.232
ACGGAGCC	0.254
AGGCGTAC	-0.113
GACTTAGC	0.0908
ACTTGTAG	-0.161
ACCTCGGC	0.377
ACAGTGCC	0.106

Sequence	PBM E-score
GAAAATTC	0.15
TCCTCGAA	-0.188
ATCCGCAC	0.21
CACAATCA	-0.069
GGATACAC	0.132
AGACGCAT	0.00478
CCATAAAG	-0.12
ATCTTGCC	0.0264
GAACCGCC	0.0491
TCCCCGGA	0.377
CTAGTTTC	0.0722
CGTTCGCC	0.189
CAGGGGAA	-0.136
CGTAAGGC	-0.143
AAGTCTTA	-0.172
GTAACAAC	-0.1
GCTAACAA	-0.165
GGCGTGCA	0.00368
GTGCATGA	-0.177
ACCATAGA	-0.102
CTCATCGC	-0.0114
CGTCGATC	0.00791
CTAACAAA	-0.302
TACACACA	-0.211
AACCAGTA	0.0156

Sequence	PBM E-score
AAACTGAT	-0.146
CACACCTG	-0.192
ATAATGAG	-0.148
GCCTACCA	-0.193
AGGCACGG	0.135
CTCAGTTC	-0.241
GCATAGTA	-0.0876
AAGACGTG	-0.0656
AGATTGAT	-0.121
GCCGTCTA	0.123
CATGTTGA	0.0709
CCATGCTA	-0.201
ATCTGTCG	0.138
TCTTCAAA	-0.0563
ATCCCTTA	0.00474
GACGTTAC	-0.0145
GTCTGGAA	-0.27
AAGGAGCG	-0.136
AGGGTACC	-0.202
GCGACATA	-0.153
AATTCACC	0.129
GATATCCC	0.291
AAGATGGC	-0.0374
ATGATCGA	-0.00064
ACGGATCC	0.283

Sequence	PBM E-score
GATATGCA	0.0359
CAATGTGC	-0.123
TACCCTAA	-0.137
GTGCAACA	-0.198
GTGTGATA	-0.0571
AGGTTTAT	0.126
CGATGTTA	-0.0124
CAACTTAA	-0.195
CCTGTGCG	-0.0389
AGTAGAAA	0.0186
CACTTACC	0.123
CGGGGAAA	0.349
TGCCATAA	-0.0654
GAAGTAAC	0.192
CTCAGGTC	-0.0727
CTCAACCC	0.052
GCCACCAC	-0.15
CACTTGCC	0.00485
CATGACCC	-0.0966
ATTTATGG	-0.0655
GGAACAGA	-0.0465
CTGCCTAA	-0.257
AAGCGTGC	-0.0977
TCTTTGCA	-0.204
CATGTAGC	-0.121

Sequence	PBM E-score
CCGCAGAA	0.207
ATGACCCG	0.0877
GCATACGA	-0.182
CGTTTTCC	0.0123
CGCTTTCA	0.0753
GACATGAA	-0.092
CGCGCACG	0.177
CGTCTGTC	-0.118
CTACAAGA	-0.118
AATACTCG	-0.038
CAGCTCCG	0.299
CTCTAACC	-0.00256
AACTATAA	0.0884
TAAGCCTA	-0.0219
CTTCTAAC	-0.151
CGTAGCAG	-0.104
GGACTTCA	0.136
ACTTGGCA	-0.229
CGACGCAC	0.00232
GATGGACC	0.107
AGCCTATG	-0.207
GTTCTCAA	-0.101
ACTACAAG	-0.0389
ACTTCGCG	0.138
TAAGTTGA	-0.273

Sequence	PBM E-score
CCCAGAGC	-0.267
GGCATACA	-0.0392
ACAGTCAC	-0.256
ACTTCCCT	-0.0608
CAGGCGTA	-0.278
GAGTGCCC	-0.0131
GGTTCACA	-0.141
AAGGTATA	-0.177
ATCCGCGA	0.196
ACCAATGG	-0.0537
TAAGCGCA	-0.229
CACCCACC	-0.00045
CCCCAGAA	-0.138
AAGGAGTA	-0.0697
CCTCGAAA	-0.208
CGACGTGC	0.132
ATCGTCTA	-0.227
CGAACTTA	0.141
AATTGTCG	0.0432
TATGGCCA	-0.123
AGTCGACA	-0.118
CTTAACTC	0.233
GGCGATGA	0.19
AGCCCGAG	0.208
AGAGCTCT	-0.0527

Sequence	PBM E-score
CGGCCAGC	0.188
ACCAGCAC	-0.289
CCAAGCCG	0.0286
AGTCATGG	-0.0964
ACTACCAG	-0.122
CGTGTGGC	-0.137
CTCACACC	-0.15
AGAGAATG	-0.296
AATAAAGT	0.019
TCTATCAA	-0.323
CCCTGCTA	-0.236
GCTATGCC	-0.0116
ATCGCCAA	-0.0744
ACCATGCG	-0.0491
GGGTCGCA	0.0245
CATTGGTA	0.0746
ATGTCCTC	-0.175
GCTCTTGA	-0.0899
CGCCTATC	0.0376
ACGACTAG	-0.232
ACGGGGCG	0.116
CATGGCGC	0.0452
CACGACGC	-0.0711
CGCCCGCC	0.229
AGATTTGC	-0.0545

Sequence	PBM E-score
ATCCATTA	0.0158
CGCATCCG	0.248
AACGCATG	-0.125
ATACATCG	0.131
AGTGCAGA	0.045
AACAAGTT	-0.0535
ACTCCTCA	-0.294
AGGTCGTA	-0.245
AGTACAGC	-0.0613
AAAACCGC	0.109
AAACTCCA	-0.0578
ATACAATC	-0.0394
TAACTACA	-0.0514
CAAAACAC	-0.0221
CACCCTCC	0.175
CGATCCGA	0.352
CTGCGCAA	0.0295
CTGTATGA	-0.0248
ACGTAGAG	-0.227
AAACCTTC	0.00763
AACGAGCT	-0.15
AGTGGAAG	0.0152
ATGAACTG	0.0129
CCCGACTC	0.195
CCAGTAGC	0.113

Sequence	PBM E-score
GATTGTTA	0.0736
CCTCAGCG	0.0416
GATGGCCA	-0.201
ACTCCCAC	-0.0353
GTGCGTTA	0.00602
TGATACAA	-0.0823
ACCATTCT	-0.123
CACCCTGA	-0.222
GACAGGAA	0.0575
AGTATCCA	-0.0363
ATCAAGAA	-0.163
AAGATGAA	-0.048
ACCCCTAT	-0.0953
GTCAACGA	-0.239
CGACCTGC	0.0171
CAGTGTGA	-0.272
CGATGTGC	0.161
TAACGCCA	-0.103
AGCTACTG	-0.00261
TGATTACA	-0.187
ATGCCTAG	-0.0474
CAACCTCC	0.143
ACCCATGC	-0.249
TCATCAGA	-0.134
AGACACCG	0.177

Sequence	PBM E-score
GGTGGTAC	0.00683
TATTTCGA	-0.0364
AACCAACG	-0.104
GATGGAGA	-0.0257
CTCAGCTC	0.0386
CCTCCCTA	-0.229
GAGGAAGC	-0.0296
ATGACAGC	-0.296
CTCTACCC	-0.22
ACGGGGCC	0.186
CTTTAAGC	0.0622
CTCGATCC	-0.0215
CGACCAAC	-0.0313
AATACTAG	-0.0844
AAGATCTC	-0.14
GGGAACAC	0.0601
CACACGTC	-0.0573
AAGTCACT	-0.23
ACTCCCGG	0.378
